Results from PubChem BioAssay AID1345083 (National Center for Advancing Translational Sciences (NCATS), 2018).
The campaign covered roughly 94,000 compounds. About 6,200 (6.6%) were called active. The inconclusive results got no clear call from the source; some entries with a clear call stand among them for comparison. Calls follow the shape of the dose curve; as a rule, active = well fitted inhibition curve with a large enough effect; inconclusive = small, poorly fitted or top-dose-only effect; inactive = flat fitted curve, though single readings scatter. Potencies of inconclusive entries are doubtful fits and often do not repeat.

Assay: Cytotoxic Profiling in HEK 293 Cell Line of Diverse Libraries Using Quantitative High-Throughput Screening; also: nearly all actives have a fitted effect of over 60% in size
Details: HEK 293 viability, ATP luminescence (CellTiter-Glo), 48-72 h; series mostly up to 115 µM
How it was run: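 Cells seeded first (HEK 293, 250 cells/well), then compound added by pintool. Incubation ran 48 or 72 hr at 37 degree Celsius. CellTiter-Glo was added and luminescence imaged after 10 min at room temperature.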
Potency is read from the fitted curve at half-maximal effect; tags tell the direction and shape of the fitted curve.

Row | Structure (SMILES) | Potency
1 | CCOc1ccccc1CNC(=O)c1cc2n(n1)CC(c1ccc3c(c1)OCO3)OC2 (stereo unspecified) | inconclusive: 56.2 µM [inhibitor, partial curve, poor fit]
2 | C#CCNC(=O)C1CN(c2ccc(F)cc2)C(=O)N1 (stereo unspecified) | inconclusive: 25.1 µM [inhibitor, full curve, poor fit]
3 | O=C(c1nnc(COc2cc(F)cc(F)c2)n1-c1ccccc1)N1CCC[C@@H]1c1cccc(F)c1 | inconclusive: 50.1 µM [inhibitor, partial curve, poor fit]
4 | CN(C)c1cccc(C(=O)NCCC2CCN(C(=O)Nc3cc(F)cc(F)c3)CC2)c1 | inconclusive: 100 µM [inhibitor, single point]
5 | Cc1cc(C(=O)Nc2ccc([C@H]3OCC(=O)N(C)[C@@H]3CO)cc2)n(C)n1 | inactive
6 | O=c1cc(-c2ccccn2)oc2c(Nc3cccnc3)nccc12 | inconclusive: 100 µM [inhibitor, partial curve]
7 | c1cc(-c2ccc3c(c2)OCCCO3)n2nc(C3CCC3)nc2n1 | inconclusive: 50.1 µM [inhibitor, partial curve, poor fit]
8 | CN(C)C(=O)N1CCCC(C(=O)N2CCC(N3Cc4cccn4C3=O)CC2)C1 (stereo unspecified) | inactive
9 | CN(C)CCNC(=O)c1nc(-c2ccc(N3CCN(C)CC3)cc2)cc2c1ccn2C | inconclusive: 11.2 µM [inhibitor, full curve, poor fit]
10 | Cc1ccccc1C(=O)N1CCN(c2cc(-c3ccc(Cl)cc3)[nH]n2)CC1 | inconclusive: 35.5 µM [inhibitor, partial curve, poor fit]
11 | CC(C)c1noc([C@@H]2C[C@H]3C(=O)NCCCCCCN(C(=O)CCC4CCCC4)[C@H]3C2)n1 | inconclusive: 56.2 µM [inhibitor, partial curve, poor fit]
12 | Fc1ccc(-c2noc([C@@H]3Cc4nc[nH]c4CN3Cc3cc4ccccc4o3)n2)cc1Cl | inconclusive: 50.1 µM [inhibitor, partial curve, poor fit]
13 | NC(=O)[C@H]1C[C@@H](O)[C@H](O)[C@H]2[C@@H]1SC(=NCC1CCCCC1)N2Cc1ccc(F)cc1 | inconclusive: 100 µM [inhibitor, partial curve, poor fit]
14 | C[C@@H]1CN(C(=O)c2ccc3c(c2)NC(C)(COCC2CC2)CO3)C[C@H](C)O1 (stereo partly specified) | inconclusive: 89.1 µM [inhibitor, partial curve, poor fit]
15 | O=C(CC1COCCN1)N(CCc1c[nH]c2ccccc12)C1CCCCC1 (stereo unspecified) | inconclusive: 20 µM [inhibitor, full curve, poor fit]
16 | Cc1ccc(C)c(-c2cc3c(=O)n(CCNC(=O)Cc4cccs4)ccn3n2)c1 | inconclusive: 50.1 µM [inhibitor, partial curve, poor fit]
17 | O=C(c1cnc2n[nH]c(-c3ccccc3)c2n1)N1CCOCC1 | inconclusive: 112 µM [inhibitor, single point]
18 | O=C(NCCc1ccncc1)C1CN(C(=O)c2ccccc2)CC12CCOCC2 (stereo unspecified) | inactive
19 | Cc1cc(NC(=O)C2CCN(c3cc(C(F)(F)F)ncn3)CC2)ccc1Br | active: 25.1 µM
20 | CCNC(=O)OC1CN(CC(C)C)C(=O)CN(C(=O)c2cccs2)C1 (stereo unspecified) | inactive
21 | COc1ccc(Nc2ccnc(N3CCC(NC(=O)C4CCCC4)CC3)n2)cc1 | active: 50.1 µM

Row | Structure (SMILES) | Potency
22 | CO[C@H]1C(=O)N(C(C)C)[C@H]1C1CCN(C(=O)Cc2cccc(F)c2)CC1 | inactive
23 | OCC1(CN2CCCC2)CCN(Cc2cccc3cc[nH]c23)CC1 | inconclusive: 56.2 µM [inhibitor, partial curve, poor fit]
24 | COCCN1C(=O)c2ccccc2C(C(=O)Nc2ccc3c(c2)OCO3)C12CCCC2 (stereo unspecified) | inactive
25 | Cc1nc2cccnc2n1CC1CCCN(S(=O)(=O)c2ccc3c(c2)OCCO3)C1 (stereo unspecified) | inconclusive: 44.7 µM [inhibitor, partial curve]
26 | CC(Oc1ccccc1)C(=O)NCc1nnc2ccc(-c3ccccc3)nn12 (stereo unspecified) | inactive
27 | O=C(Cc1ccc(N(Cc2cccc(F)c2)C(=O)c2ccco2)cc1)NCc1ccco1 | active: 89.1 µM
28 | Cc1nn(C)c(C)c1CCC(=O)NC1CCc2nnc(C3CC3)n2CC1 (stereo unspecified) | inactive
29 | O=C(NC1CCCN(c2ccc3nnc(C4CC4)n3n2)C1)c1ccccc1 (stereo unspecified) | inactive
30 | O=C(c1ccc2c(c1)OCO2)N1CCCN(CCn2nc3n(c2=O)CCCC3)CC1 | inactive
31 | Cc1ccc(CC(=O)N2CCCC(c3noc(COc4ccccc4)n3)C2)cc1 (stereo unspecified) | inconclusive: 39.8 µM [inhibitor, partial curve]
32 | O=C1Nc2ccccc2OCC12CCN(Cc1ccc(C(F)(F)F)cc1)CC2 | inconclusive: 39.8 µM [inhibitor, partial curve]
33 | COc1ccccc1OC1CN(C(=O)C(c2cccc(F)c2)N(C)C)C1 (stereo unspecified) | inactive
34 | CN1c2cc(C(=O)Nc3cccc(OC(F)(F)F)c3)ccc2C(=O)N2CCCCCC21 (stereo unspecified) | inconclusive: 10 µM [inhibitor, full curve, poor fit]
35 | CC(C)C[C@@H]1N[C@H](C(=O)NCc2ccccc2)Cc2cn(Cc3cccnc3)c3cccc1c23 | active: 25.1 µM
36 | COc1ccc(CC(=O)Nc2ccc([C@@H](O)[C@H]3COCC(=O)N3CC3CCCCC3)cc2)cc1 | inconclusive: 89.1 µM [inhibitor, partial curve, poor fit]
37 | O=C(Cc1c[nH]c2ncc(-c3ccccc3)cc12)NCCc1ccccc1 | inconclusive: 35.5 µM [inhibitor, partial curve]
38 | C[C@@H](NC(=O)C1=C[C@@H](NC(=O)CC2(CC(=O)O)CCCC2)[C@@H](O)[C@H](O)C1)C(N)=O | inactive
39 | CCN1c2cc(C(=O)NCc3cccc(F)c3)ccc2C(=O)N2CCCCCC21 (stereo unspecified) | inconclusive: 44.7 µM [inhibitor, partial curve, poor fit]
40 | CCCc1noc(-c2cccn3c(CNC(=O)c4ccco4)nnc23)n1 | inactive
41 | O=C(NCCn1ccn2nc(-c3ccc(F)cc3)cc2c1=O)c1ccc(F)cc1 | inconclusive: 89.1 µM [inhibitor, single point]
